# Measured values from PMC4336329 (PLoS ONE, 2015).
# The campaign covered roughly 310,000 compounds. About 14,000 (4.5%) showed an effect of 50% or more. Effects have a minus sign here. This is one part of the list.
# Target: human ether-à-go-go-related gene (hERG) potassium channel (human, UniProt Q12809)
# Assay: primary screen, population patch clamp on CHO cells stably expressing hERG
# 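Note: peak tail current of the secondary pulse compared with the same well before compound.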
# Sequence of human ether-à-go-go-related gene (hERG) potassium channel (Q12809 whole entry, looked up): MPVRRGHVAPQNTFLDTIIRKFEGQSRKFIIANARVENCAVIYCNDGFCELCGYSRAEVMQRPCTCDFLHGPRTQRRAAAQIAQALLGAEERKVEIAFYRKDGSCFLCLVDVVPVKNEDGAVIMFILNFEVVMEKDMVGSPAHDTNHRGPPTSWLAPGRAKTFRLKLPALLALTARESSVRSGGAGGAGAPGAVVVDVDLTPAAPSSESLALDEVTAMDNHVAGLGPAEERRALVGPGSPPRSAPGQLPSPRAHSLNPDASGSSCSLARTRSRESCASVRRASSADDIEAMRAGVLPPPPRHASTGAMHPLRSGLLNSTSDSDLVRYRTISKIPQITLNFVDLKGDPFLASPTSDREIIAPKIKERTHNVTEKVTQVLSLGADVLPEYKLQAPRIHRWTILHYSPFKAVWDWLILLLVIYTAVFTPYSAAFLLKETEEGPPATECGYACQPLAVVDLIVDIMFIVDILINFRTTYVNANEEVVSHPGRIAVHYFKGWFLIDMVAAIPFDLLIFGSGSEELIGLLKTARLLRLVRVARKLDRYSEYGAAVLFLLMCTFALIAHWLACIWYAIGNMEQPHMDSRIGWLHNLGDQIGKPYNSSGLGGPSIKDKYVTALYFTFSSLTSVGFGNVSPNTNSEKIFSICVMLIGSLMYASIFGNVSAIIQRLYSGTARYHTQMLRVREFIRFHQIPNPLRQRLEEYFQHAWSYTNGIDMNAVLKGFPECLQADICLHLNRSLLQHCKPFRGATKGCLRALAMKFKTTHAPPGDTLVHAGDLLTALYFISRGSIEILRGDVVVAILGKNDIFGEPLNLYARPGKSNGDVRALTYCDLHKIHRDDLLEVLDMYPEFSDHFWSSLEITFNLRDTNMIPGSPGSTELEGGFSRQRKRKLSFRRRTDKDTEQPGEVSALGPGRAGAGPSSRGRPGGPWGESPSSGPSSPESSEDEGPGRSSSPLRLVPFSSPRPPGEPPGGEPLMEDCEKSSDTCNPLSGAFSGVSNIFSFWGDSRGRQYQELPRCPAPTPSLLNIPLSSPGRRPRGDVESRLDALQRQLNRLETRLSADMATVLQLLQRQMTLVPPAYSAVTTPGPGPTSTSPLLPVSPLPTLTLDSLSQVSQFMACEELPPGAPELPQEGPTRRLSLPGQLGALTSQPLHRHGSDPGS
row,SMILES,"hERG current change (%, negative = inhibition) at 10uM"
1,C=C(C)CN1CCN(S(=O)(=O)c2ccc(C)c(N(C)S(=O)(=O)c3ccc(C)cc3)c2C)CC1,-2.33%
2,O=C(Nc1ccc(O)c(C(=O)O)c1)c1ccc2c(c1)C(=O)N(CC1CCCO1)C2=O (centres unmarked),6.21%
3,O=C(CSc1nnc2c(Cl)cc(C(F)(F)F)cn12)N(Cc1ccccc1)Cc1ccccc1,-28.6%
4,Nn1c(Nc2ccc(Cl)cc2)nncc1=O,4.22%
5,Cc1ccc(O)c(C(=O)/C=C/c2ccc3c(c2)OCCO3)c1,6.81%
6,CCOC(=O)C1CCCCN1Cc1ccc(F)c(Br)c1 (centres unmarked),0.154%
7,Cc1ccc(-n2c(=O)c3c4c(sc3n3c(=S)[nH]nc23)CCC4)cc1,21.4%
8,CN(CCOCCOc1ccc2ccccc2c1)Cc1ccccc1,-40.2%
9,O=[N+]([O-])c1cccc(/C(=N/N=C/c2ccccc2Br)C23CN4CN(CN(C4)C2)C3)c1,-4.07%
10,COc1ccc(C(=O)c2sc3nc(-c4ccccc4)ccc3c2N)cc1OC,18.1%
11,CC(=O)Nc1ccccc1OCC(=O)N(Cc1ccccc1)C(C)C,1.48%
12,CN(CCc1ccccn1)C(=O)c1cccnc1Oc1ccccc1,11.3%
13,CN(Cc1ccccc1)C1CCCN(C(=O)COc2ccccc2Cl)C1 (centres unmarked),-40.7%
14,CCOc1cc(NC(=S)NCCCN2CCOCC2)c(OCC)cc1NC(=O)C(C)C,12.5%
15,COc1ccc(N2CCN(C(c3ccccc3)c3nnnn3Cc3ccc(F)cc3)CC2)cc1 (centres unmarked),0.111%
16,N#Cc1ccc(CN2CCN(C(=O)Cn3nc(C(N)=O)c4ccccc4c3=O)CC2)cc1,-70%
17,O=C(CCn1c(=O)[nH]c2ccccc2c1=O)NCCCN1CCN(c2cccc(Cl)c2)CC1,-65.4%
18,CC(OC(=O)Cn1nnc2ccccc21)C(=O)NC1CCCC1 (centres unmarked),10%
19,COc1ccccc1N1CC(C(=O)Nc2nnc(SCC(=O)N3CCCC3)s2)CC1=O (centres unmarked),2.97%
20,CCOC(=O)NC1(C(F)(F)F)NC(=O)N(c2cccc(C(F)(F)F)c2)C1=O (centres unmarked),5.01%
21,O=C(O)c1ccccc1N=Nc1c(O)[nH]c(=O)[nH]c1=O,11.5%
22,Cc1ccsc1C(=O)C1CCCN(Cc2cnc(N3CCCC3)s2)C1 (centres unmarked),-15.3%

row,SMILES,"hERG current change (%, negative = inhibition) at 10uM"
1,COc1ccc(CNCc2c(O)c(Cl)cc3c(C)c(C)c(=O)oc23)c(OC)c1.Cl,-3.6%
2,CCOC(=O)COn1c(=O)c(-c2ccc(OC)cc2)[n+]([O-])c2ccccc21,-1.13%
3,COc1cccc(C2NC(C)(C(=O)O)C3C(=O)N(C(C)C)C(=O)C23)c1O (centres unmarked),-3.02%
4,COc1cc([N+](=O)[O-])ccc1NC(=O)CCCOc1cccc(C)c1,-3.49%
5,O=[N+]([O-])c1ccc(SCc2ccco2)cc1N1CCOCC1,-20.3%
6,O=C(COC(=O)c1cc(NS(=O)(=O)c2cccs2)ccc1O)Nc1ccc(F)c(F)c1F,4.87%
7,CCOC(=O)C1CCN(C(=O)c2ccccc2N(C)S(C)(=O)=O)CC1,-8.52%
8,O=C(COC(=O)C1CCC(=O)N1)Nc1ccc(Oc2ccccc2)cc1 (centres unmarked),-0.66%
9,O=C(Cn1cncn1)N/N=C/c1ccccc1Cl,16.8%
10,CCOC(=O)c1ccccc1NC(=O)c1c(O)[nH]c(=O)[nH]c1=O,6.6%
11,CC(C)C[C@H]1CN=C(Nc2ccccc2)N1CC1CCCC1,-24%
12,COc1ccccc1N1CCN(C(=O)c2cc(N3C(=O)C4C5CCC(C5)C4C3=O)ccc2Cl)CC1 (centres unmarked),-4.13%
13,COc1ccc(N=Cc2c(O)c3ccccc3oc2=O)cc1,16.6%
14,CN1C(=O)c2ccccc2Sc2ccc(NC(=O)NC3CC3)cc21,-11%
15,Cc1ccccc1NC(=O)Cn1cnc2c(oc3nc4c(cc32)CCCC4)c1=O,-9.01%
16,CC(C)Oc1ccccc1/C=N/NC(=O)C1CCCC1,12.2%
17,CN1CCN(C(=O)c2cc(=O)c3cc(Cl)ccc3o2)CC1,-28.1%
18,COc1ccc(C(=O)NC2CC2)cc1OC1CCN(C(C)CSC)CC1 (centres unmarked),-75.4%
19,CCc1noc(C)c1C(=O)N1CCN(c2cccc(C)c2C)CC1,-32.3%
20,CC1CCCN(c2ccc(C(=O)NCCc3ccccc3)cn2)C1 (centres unmarked),-19.5%
21,CC(=O)Nc1cccc(OCC(=O)NS(=O)(=O)c2ccc(Cl)cc2)c1,3.08%
22,CN(C)C(C)(C)C#CCC(c1ccccc1)c1ccccc1.Cl,-55.9%

row,SMILES,"hERG current change (%, negative = inhibition) at 10uM"
1,Cc1ccc(NC(=O)C2CCN(S(=O)(=O)c3ccc4c(c3)CCCC(=O)N4)CC2)c(Br)c1,-5.9%
2,Cc1ccccc1NC(=O)COc1ccc(S(=O)(=O)N2CCCC2)cc1C,16.5%
3,O=C(COc1ccc([N+](=O)[O-])cc1)Nc1ccccc1C(=O)NC1CC1,-5.6%
4,O=C(CSc1nnc(SCc2cccc3ccccc23)s1)N=Nc1c(O)[nH]c2ccccc12,7.13%
5,CCn1c(SCC(=O)c2ccc(O)c(O)c2)nnc1-c1ccccc1OC,-6.41%
6,O=C(CSc1nnc(COc2ccccc2Cl)o1)NC(=O)NC1CCCC1,-8.92%
7,COc1ccc(C(=O)CN2C(=O)NC(C)(c3ccccc3)C2=O)cc1OC (centres unmarked),-5.63%
8,CCOC(=O)CCCNC(=O)CN1C(=O)NC(CCc2ccccc2)C1=O (centres unmarked),0.531%
9,CCCOc1ccc(CCC(=O)N/N=C/c2ccncc2)cc1,-11.5%
10,CCOC(=O)C1CCN(C(=O)CN(c2ccc(Oc3ccccc3)cc2)S(C)(=O)=O)CC1,-33.6%
11,COC(=O)c1ccccc1NC(=O)CN1CCN(C(=O)c2ccco2)CC1,-51.6%
12,COC(C(=O)Nc1ccc(Br)cc1F)c1ccccc1 (centres unmarked),16.5%
13,CC1CCN(c2nnc(NC(=O)Cn3c(=O)oc4ccccc43)s2)CC1,14.9%
14,CCOc1ccc(NC(=O)c2ccc(N3CC4CC(C3)c3cccc(=O)n3C4)c(NC(=O)c3cccnc3)c2)cc1 (centres unmarked),-14.9%
15,Cc1cccc(NC(=O)NNC(=O)COc2ccc3ccccc3c2)c1,26.5%
16,Cc1cc(NS(=O)(=O)c2ccc(NC(=O)C(CC(C)C)N3C(=O)c4ccccc4C3=O)cc2)nc(C)n1 (centres unmarked),32.8%
17,O=c1[nH]c(C2CCN(S(=O)(=O)/C=C/c3ccccc3)CC2)nc2c1nnn2Cc1ccc(F)cc1,-19.3%
18,CCOCCn1c(C)c(C(=O)OCC)c2cc(O)c3ccccc3c21,16.9%
19,COc1cc(OC)cc(N(C(=O)c2snc(C(N)=O)c2N)C(C(=O)NCC2CCCO2)c2ccc(C)o2)c1 (centres unmarked),-3.46%
20,OCC1CCCN1C(=S)Nc1ccccc1 (centres unmarked),3.84%
21,O=C(Nc1nnc(SCC(=O)N2CCOCC2)s1)C1CC(=O)N(c2ccc(F)cc2)C1 (centres unmarked),15%
22,CCN(CC)C(=O)C(Cc1ccccc1)N1C(=O)c2ccccc2C1=O (centres unmarked),1.31%

row,SMILES,"hERG current change (%, negative = inhibition) at 10uM"
1,COc1cc(-c2cc(-c3ccc(N)cc3)[nH]c(=O)c2C#N)cc(OC)c1OC,9.13%
2,COCCSc1ccccc1C(=O)Nc1ccc2c(c1)OCO2,6.82%
3,CC(C)[C@H](NC(=O)[C@@H]1CSC2c3ccccc3C(=O)N21)C(=O)NCc1ccncc1 (some centres unmarked),14.4%
4,Cc1ccc(NC(=O)CNCc2cccs2)cc1Br.Cl,5.32%
5,O=C(O)c1cc2c(ccc3ccccc32)oc1=O,-3.94%
6,CCN(CC(=O)NCc1cccs1)C(=O)c1ccc(-c2ccccc2F)o1,-71.6%
7,COCCCn1c(N)c(C(=O)OC(C)COC)c2nc3ccccc3nc21 (centres unmarked),0.737%
8,Cc1ccc(C(=O)CCC(=O)Nc2ccc(C)cn2)cc1,7.98%
9,COc1ccc(C(=O)NCCc2c[nH]c3ccccc23)cc1S(=O)(=O)N1CCOCC1,-9.63%
10,Cc1cc(C)n(C(=O)Cn2nc(C)c(Br)c2C)n1,14%
11,C=CCSc1ccsc1C(=O)O,-5.27%
12,Cc1cc(NC(=O)COc2ccc([N+](=O)[O-])cc2)no1,-4.62%
13,CSc1sc(-c2ccnc(=S)[nH]2)c(-c2ccccc2)c1C#N,4.98%
14,C=C(C)CSc1nnc(CCNC(=O)OC(C)(C)C)o1,-4.62%
15,CCOc1cccc(CN2CCC(n3nccc3NC(=O)CCCc3ccccc3)CC2)c1,-27.5%
16,Clc1cccc(Cn2ncc3ccccc32)c1,6.32%
17,CCC(=O)NNC(=O)c1c(O)c2ccccc2[nH]c1=O,26.2%
18,Cc1ccc(/C=C/C(=O)Nc2cc(=O)n(C)c(=O)n2C)o1,1.7%
19,Cn1c(=O)cc(SCC(=O)NCCCN2CCN(c3ccc(F)cc3)CC2)c2ccccc21,-69.2%
20,CCOC(=O)[C@H]1[C@H]2COc3ccc(Cl)cc3[C@@H]2N2C(=O)CN(Cc3ccc(F)cc3)C(=O)[C@@]12C,12.1%
